Data as given in patent publication US20210324040A1 (ACCELERON PHARMA, published 2021).

Molecular target: T1, Human TGFβ1 (human, UniProt P01137 fragment)
Experiment: cell-based or functional assay

Row | Binder | IC50 (inhibition of TGFβ1 in the A549 pGL3(CAGA)12 luciferase reporter gene assay)
1 | hTβRII (G4S)4-hFc (Fc fusion) GATIPPHVQKSDVEMEAQKDEIICPSCNRTAHPLRHINNDMIVTDNNGAVKFPQLCKFCDVRFSTCDNQKSCMSNCSITSICEKPQEVCVAVWRKNDENITLETVCHDPKLPYHDFILEDAASPKCIMKEKKKPGETFFMCSCSSDECNDNIIFSEEYNTSNPDTGGGGSGGGGSGGGGSGGG[human IgG1 Fc and a few adjoining residues not written out] | 70 pM
2 | hTβRII extended hinge-hFc (Fc fusion) GATIPPHVQKSDVEMEAQKDEIICPSCNRTAHPLRHINNDMIVTDNNGAVKFPQLCKFCDVRFSTCDNQKSCMSNCSITSICEKPQEVCVAVWRKNDENITLETVCHDPKLPYHDFILEDAASPKCIMKEKKKPGETFFMCSCSSDECNDNIIFSEEYNTSNPDTGGG[human IgG1 Fc not written out] | 5.67 nM
3 | hTβRII (G4S)2-hFc (Fc fusion) GATIPPHVQKSDVEMEAQKDEIICPSCNRTAHPLRHINNDMIVTDNNGAVKFPQLCKFCDVRFSTCDNQKSCMSNCSITSICEKPQEVCVAVWRKNDENITLETVCHDPKLPYHDFILEDAASPKCIMKEKKKPGETFFMCSCSSDECNDNIIFSEEYNTSNPDTGGGGSGGG[human IgG1 Fc and a few adjoining residues not written out] | 1.12 nM
4 | hTβRII-hFc (Fc fusion) GATIPPHVQKSDVEMEAQKDEIICPSCNRTAHPLRHINNDMIVTDNNGAVKFPQLCKFCDVRFSTCDNQKSCMSNCSITSICEKPQEVCVAVWRKNDENITLETVCHDPKLPYHDFILEDAASPKCIMKEKKKPGETFFMCSCSSDECNDNIIFSEEYNTSNPDTG[human IgG1 Fc and a few adjoining residues not written out] | 7.69 nM
5 | hTβRII (G4S)3-hFc (Fc fusion) GATIPPHVQKSDVEMEAQKDEIICPSCNRTAHPLRHINNDMIVTDNNGAVKFPQLCKFCDVRFSTCDNQKSCMSNCSITSICEKPQEVCVAVWRKNDENITLETVCHDPKLPYHDFILEDAASPKCIMKEKKKPGETFFMCSCSSDECNDNIIFSEEYNTSNPDTGGGGSGGGGSGGG[human IgG1 Fc and a few adjoining residues not written out] | 0.22 nM

Molecular target: T1, Human TGFβ1
Experiment: cell-based or functional assay
Remark: another data set of the same source

T1 sequence (P01137 279-390 limits assumed): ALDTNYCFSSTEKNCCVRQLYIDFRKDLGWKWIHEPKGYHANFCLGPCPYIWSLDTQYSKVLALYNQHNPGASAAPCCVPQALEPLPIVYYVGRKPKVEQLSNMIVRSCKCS

Row | Binder | IC50 (inhibition of TGFβ1 in the A549 pGL3(CAGA)12 luciferase reporter gene assay) [pM]
6 | hTβRII (G4S)6-hFc (Fc fusion) GATIPPHVQKSDVEMEAQKDEIICPSCNRTAHPLRHINNDMIVTDNNGAVKFPQLCKFCDVRFSTCDNQKSCMSNCSITSICEKPQEVCVAVWRKNDENITLETVCHDPKLPYHDFILEDAASPKCIMKEKKKPGETFFMCSCSSDECNDNIIFSEEYNTSNPDTGGGGSGGGGSGGGGSGGGGSGGGGSGGG[human IgG1 Fc and a few adjoining residues not written out] | 20
7 | hTβRII (G4S)5-hFc (Fc fusion) GATIPPHVQKSDVEMEAQKDEIICPSCNRTAHPLRHINNDMIVTDNNGAVKFPQLCKFCDVRFSTCDNQKSCMSNCSITSICEKPQEVCVAVWRKNDENITLETVCHDPKLPYHDFILEDAASPKCIMKEKKKPGETFFMCSCSSDECNDNIIFSEEYNTSNPDTGGGGSGGGGSGGGGSGGGGSGGG[human IgG1 Fc and a few adjoining residues not written out] | 30
